A lower IC50 marks a more sensitive line; fits outside the tested doses are given as limits. The AUC spans the tested range (256-fold, ending at the top dose) of the same fit; the more sensitive the line, the further below 1. An inferred top dose comes from the curve model; the source does not state it.
Compound: CCc1nc(-c2cccc(C)c2)c(-c2ccnc(NC(=O)c3ccccc3)c2)s1 [TAK-715]
Test: Viability of human cancer cell lines after 72 h of drug (GDSC screen)
Conditions: top dose inferred
Procedure: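 Human cancer cell lines in 384-well plates, medium with 10% serum, drug for 72 h over a 256-fold dose range (nine 2-fold or five 4-fold steps up to the top dose). Adherent lines were fixed and stained with the nucleic acid dye Syto60, suspension lines read with resazurin; signal relative to control wells, capped at 0 and 100%. One two-parameter sigmoid per drug and line, fitted in a mixed model over all curves with the slope shared within a line.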

Cell Line: OVCAR-5 (ovary, adherent, top dose 20 µM)
- AUC: 0.964
- IC50: > 20 µM

Cell Line: OVCAR-8 (ovary, adherent, top dose 20 µM)
- AUC: 0.972
- IC50: > 20 µM

Cell Line: OVISE (ovary, adherent, top dose 20 µM)
- AUC: 0.92
- IC50: > 20 µM

Cell Line: OVK-18 (ovary, adherent, top dose 20 µM)
- AUC: 0.938
- IC50: > 20 µM

Cell Line: OVKATE (ovary, adherent, top dose 20 µM)
- AUC: 0.972
- IC50: > 20 µM

Cell Line: OVMIU (ovary, adherent, top dose 20 µM)
- AUC: 0.891
- IC50: > 20 µM

Cell Line: OVTOKO (ovary, adherent, top dose 20 µM)
- AUC: 0.918
- IC50: > 20 µM

Cell Line: P12-ICHIKAWA (T-cell lymphoblastic leukaemia, suspension, top dose 20 µM)
- AUC: 0.745
- IC50: 5.12 µM

Cell Line: P30-OHK (lymphoblastic leukaemia, suspension, top dose 20 µM)
- AUC: 0.884
- IC50: 15.5 µM

Cell Line: P31-FUJ (acute myeloid leukaemia, suspension, top dose 20 µM)
- AUC: 0.978
- IC50: > 20 µM

Cell Line: P32-ISH (Burkitt lymphoma, suspension, top dose 20 µM)
- AUC: 0.908
- IC50: 15.2 µM

Cell Line: PA-1 (ovary, adherent, top dose 20 µM)
- AUC: 0.805
- IC50: 7.6 µM

Cell Line: PA-TU-8902 (pancreas, adherent, top dose 20 µM)
- AUC: 0.946
- IC50: > 20 µM

Cell Line: PA-TU-8988T (pancreas, adherent, top dose 20 µM)
- AUC: 0.948
- IC50: > 20 µM

Cell Line: PANC-02-03 (pancreas, adherent, top dose 20 µM)
- AUC: 0.962
- IC50: > 20 µM

Cell Line: PANC-03-27 (pancreas, adherent, top dose 20 µM)
- AUC: 0.925
- IC50: > 20 µM

Cell Line: PANC-04-03 (pancreas, adherent, top dose 20 µM)
- AUC: 0.978
- IC50: > 20 µM

Cell Line: PANC-08-13 (pancreas, adherent, top dose 20 µM)
- AUC: 0.977
- IC50: > 20 µM

Cell Line: PANC-10-05 (pancreas, adherent, top dose 20 µM)
- AUC: 0.936
- IC50: > 20 µM

Cell Line: PC-3 (prostate, adherent, top dose 20 µM)
- AUC: 0.901
- IC50: > 20 µM

Cell Line: PC-3 [JPC-3] (lung adenocarcinoma, adherent, top dose 20 µM)
- AUC: 0.592
- IC50: 2.43 µM

Cell Line: PC-14 (lung adenocarcinoma, adherent, top dose 20 µM)
- AUC: 0.875
- IC50: 16 µM

Cell Line: PCI-4B (head and neck, adherent, top dose 20 µM)
- AUC: 0.904
- IC50: > 20 µM

Cell Line: PCI-6A (head and neck, adherent, top dose 20 µM)
- AUC: 0.858
- IC50: 15.9 µM

Cell Line: PCI-15A (head and neck, adherent, top dose 20 µM)
- AUC: 0.897
- IC50: > 20 µM

Cell Line: PCI-30 (head and neck, adherent, top dose 20 µM)
- AUC: 0.979
- IC50: > 20 µM

Cell Line: PCI-38 (head and neck, adherent, top dose 20 µM)
- AUC: 0.941
- IC50: > 20 µM

Cell Line: PE/CA-PJ15 (head and neck, adherent, top dose 20 µM)
- AUC: 0.957
- IC50: > 20 µM

Cell Line: PEO1 (ovary, adherent, top dose 20 µM)
- AUC: 0.952
- IC50: > 20 µM

Cell Line: PF-382 (T-cell lymphoblastic leukaemia, suspension, top dose 20 µM)
- AUC: 0.863
- IC50: 13.9 µM

Cell Line: PFSK-1 (medulloblastoma, adherent, top dose 20 µM)
- AUC: 0.959
- IC50: > 20 µM

Cell Line: PL4 (pancreas, adherent, top dose 20 µM)
- AUC: 0.966
- IC50: > 20 µM

Cell Line: PL18 (pancreas, adherent, top dose 20 µM)
- AUC: 0.974
- IC50: > 20 µM

Cell Line: PL-21 (acute myeloid leukaemia, suspension, top dose 20 µM)
- AUC: 0.809
- IC50: 12.6 µM

Cell Line: PSN1 (pancreas, adherent, top dose 20 µM)
- AUC: 0.939
- IC50: > 20 µM

Cell Line: QGP-1 (pancreas, adherent, top dose 20 µM)
- AUC: 0.965
- IC50: > 20 µM

Cell Line: QIMR-WIL (acute myeloid leukaemia, suspension, top dose 20 µM)
- AUC: 0.744
- IC50: 6.08 µM

Cell Line: RC-K8 (B-cell lymphoma, suspension, top dose 20 µM)
- AUC: 0.909
- IC50: > 20 µM

Cell Line: RCC10RGB (kidney, adherent, top dose 10.24 µM)
- AUC: 0.971
- IC50: > 10.2 µM

Cell Line: RCC-AB (kidney, adherent, top dose 20 µM)
- AUC: 0.826
- IC50: 17.4 µM

Cell Line: RCC-ER (kidney, adherent, top dose 20 µM)
- AUC: 0.957
- IC50: > 20 µM

Cell Line: RCC-FG2 (kidney, adherent, top dose 20 µM)
- AUC: 0.921
- IC50: > 20 µM

Cell Line: RCC-JF (kidney, adherent, top dose 20 µM)
- AUC: 0.836
- IC50: 15.7 µM

Cell Line: RCC-JW (kidney, adherent, top dose 20 µM)
- AUC: 0.911
- IC50: > 20 µM

Cell Line: RCC-MF (kidney, adherent, top dose 20 µM)
- AUC: 0.816
- IC50: 15.5 µM

Cell Line: RCM-1 (large intestine, adherent, top dose 20 µM)
- AUC: 0.94
- IC50: > 20 µM

Cell Line: RD (rhabdomyosarcoma, adherent, top dose 20 µM)
- AUC: 0.983
- IC50: > 20 µM

Cell Line: REH (B-cell leukaemia, suspension, top dose 20 µM)
- AUC: 0.859
- IC50: 15.6 µM

Cell Line: RERF-GC-1B (stomach, adherent, top dose 20 µM)
- AUC: 0.879
- IC50: > 20 µM

Cell Line: RERF-LC-KJ (lung adenocarcinoma, adherent, top dose 20 µM)
- AUC: 0.937
- IC50: > 20 µM

Cell Line: RERF-LC-MS (lung adenocarcinoma, adherent, top dose 20 µM)
- AUC: 0.971
- IC50: > 20 µM

Cell Line: RERF-LC-Sq1 (lung squamous cell carcinoma, adherent, top dose 20 µM)
- AUC: 0.905
- IC50: > 20 µM

Cell Line: RF-48 (stomach, adherent, top dose 20 µM)
- AUC: 0.877
- IC50: > 20 µM

Cell Line: RH-1 (rhabdomyosarcoma, adherent, top dose 20 µM)
- AUC: 0.891
- IC50: 16.6 µM

Cell Line: RH-18 (rhabdomyosarcoma, adherent, top dose 20 µM)
- AUC: 0.985
- IC50: > 20 µM

Cell Line: RH-41 (rhabdomyosarcoma, adherent, top dose 20 µM)
- AUC: 0.984
- IC50: > 20 µM

Cell Line: RKN (ovary, adherent, top dose 20 µM)
- AUC: 0.973
- IC50: > 20 µM

Cell Line: RKO (large intestine, adherent, top dose 20 µM)
- AUC: 0.859
- IC50: 14.8 µM

Cell Line: RL95-2 (endometrium, adherent, top dose 20 µM)
- AUC: 0.973
- IC50: > 20 µM

Cell Line: RL (B-cell lymphoma, suspension, top dose 20 µM)
- AUC: 0.817
- IC50: 10 µM

Cell Line: RMG-I (ovary, adherent, top dose 20 µM)
- AUC: 0.897
- IC50: > 20 µM

Cell Line: RO82-W-1 (thyroid, adherent, top dose 20 µM)
- AUC: 0.983
- IC50: > 20 µM

Cell Line: ROS-50 (B-cell leukaemia, suspension, top dose 20 µM)
- AUC: 0.882
- IC50: > 20 µM

Cell Line: RPMI-2650 (head and neck, adherent, top dose 20 µM)
- AUC: 0.94
- IC50: > 20 µM

Cell Line: RPMI-6666 (Hodgkin lymphoma, suspension, top dose 20 µM)
- AUC: 0.797
- IC50: 11.7 µM

Cell Line: RPMI-7951 (melanoma, adherent, top dose 20 µM)
- AUC: 0.951
- IC50: > 20 µM

Cell Line: RPMI-8226 (myeloma, suspension, top dose 20 µM)
- AUC: 0.912
- IC50: > 20 µM

Cell Line: RPMI-8402 (T-cell lymphoblastic leukaemia, suspension, top dose 20 µM)
- AUC: 0.657
- IC50: 3.14 µM

Cell Line: RPMI-8866 (chronic myeloid leukaemia, suspension, top dose 20 µM)
- AUC: 0.887
- IC50: 19.5 µM

Cell Line: RS4-11 (leukaemia, suspension, top dose 20 µM)
- AUC: 0.883
- IC50: 18.2 µM

Cell Line: RT4 (bladder, adherent, top dose 20 µM)
- AUC: 0.906
- IC50: > 20 µM

Cell Line: RT-112 (bladder, adherent, top dose 20 µM)
- AUC: 0.985
- IC50: > 20 µM

Cell Line: RVH-421 (melanoma, adherent, top dose 20 µM)
- AUC: 0.877
- IC50: > 20 µM

Cell Line: RXF393 (kidney, adherent, top dose 20 µM)
- AUC: 0.948
- IC50: > 20 µM

Cell Line: Raji (Burkitt lymphoma, suspension, top dose 20 µM)
- AUC: 0.957
- IC50: > 20 µM

Cell Line: Ramos-2G6-4C10 (Burkitt lymphoma, suspension, top dose 20 µM)
- AUC: 0.898
- IC50: 18.6 µM

Cell Line: SAS (head and neck, adherent, top dose 20 µM)
- AUC: 0.906
- IC50: > 20 µM

Cell Line: SAT (head and neck, adherent, top dose 20 µM)
- AUC: 0.947
- IC50: > 20 µM

Cell Line: SBC-1 (small cell lung carcinoma, suspension, top dose 20 µM)
- AUC: 0.978
- IC50: > 20 µM

Cell Line: SBC-3 (small cell lung carcinoma, adherent, top dose 20 µM)
- AUC: 0.899
- IC50: > 20 µM

Cell Line: SBC-5 (small cell lung carcinoma, adherent, top dose 20 µM)
- AUC: 0.979
- IC50: > 20 µM

Source: the supplement of paper PMC4967469
